Blank lines part the entries; values can stand above or below the binder they belong to.
Legend:
[1] = biological target: T1, B cell activating factor (BAFF) standard (UniProt Q9Y275 partial chain); assay: SPR, BIAcore T100; BAFF Trap coupled to chip, BAFF as analyte
T1 construct: also called BLyS; TALL-1
From the text: (§1) Using BIAcore T100 to detect binding capacity of BAFF Trap and BAFF in vitro conditions, the binding constant was analysis by BIAcore T100 Evaluation Software. Also, the standards of BAFF R-Fc and TACI-Fc were used as a control substance.

[2] = biological target: T1, B cell activating factor (BAFF) standard; assay: SPR, BIAcore T100; Br3-Fc coupled to chip, BAFF as analyte
From the text: as §1

Kd [1]: 12.7 nM | koff [1]: 0.000141 s⁻¹
B1: fusion protein BAFF Trap (TACI CRD2 - Br3 CRD - IgG1 Fc) (Fc fusion)
chain: LSCRKEQGKFYDHLLRDCISCASICGQHPKQCAYFCENKLRSPGRDAPAPTPCVPAECFDLLVRHCVACGLLRTPRPKPAGASSPAP[human IgG1 Fc not written out]
notes: also called BT; TACI-Br3-IgG1 Fc

Kd [2]: 34 nM | koff [2]: 0.000679 s⁻¹ | kon [2]: 19900 M⁻¹ s⁻¹
B2: Br3-Fc standard (Fc fusion)
chain: not shown
notes: Control standard; also called BAFF R-Fc; not shown: Fc part of the standard
